Test results as given in publication PMC4336329 (PLoS ONE, 2015).
Among all 310,000 compounds or so, about 2,200 (0.71%) showed an effect of 50% or more. The effect is printed as a negative number. The list shows a part of the results.

Biological target: human ether-à-go-go-related gene (hERG) potassium channel (human, UniProt Q12809)
Experiment: primary screen, population patch clamp on CHO cells stably expressing hERG

Chain of human ether-à-go-go-related gene (hERG) potassium channel (Q12809 whole entry, looked up): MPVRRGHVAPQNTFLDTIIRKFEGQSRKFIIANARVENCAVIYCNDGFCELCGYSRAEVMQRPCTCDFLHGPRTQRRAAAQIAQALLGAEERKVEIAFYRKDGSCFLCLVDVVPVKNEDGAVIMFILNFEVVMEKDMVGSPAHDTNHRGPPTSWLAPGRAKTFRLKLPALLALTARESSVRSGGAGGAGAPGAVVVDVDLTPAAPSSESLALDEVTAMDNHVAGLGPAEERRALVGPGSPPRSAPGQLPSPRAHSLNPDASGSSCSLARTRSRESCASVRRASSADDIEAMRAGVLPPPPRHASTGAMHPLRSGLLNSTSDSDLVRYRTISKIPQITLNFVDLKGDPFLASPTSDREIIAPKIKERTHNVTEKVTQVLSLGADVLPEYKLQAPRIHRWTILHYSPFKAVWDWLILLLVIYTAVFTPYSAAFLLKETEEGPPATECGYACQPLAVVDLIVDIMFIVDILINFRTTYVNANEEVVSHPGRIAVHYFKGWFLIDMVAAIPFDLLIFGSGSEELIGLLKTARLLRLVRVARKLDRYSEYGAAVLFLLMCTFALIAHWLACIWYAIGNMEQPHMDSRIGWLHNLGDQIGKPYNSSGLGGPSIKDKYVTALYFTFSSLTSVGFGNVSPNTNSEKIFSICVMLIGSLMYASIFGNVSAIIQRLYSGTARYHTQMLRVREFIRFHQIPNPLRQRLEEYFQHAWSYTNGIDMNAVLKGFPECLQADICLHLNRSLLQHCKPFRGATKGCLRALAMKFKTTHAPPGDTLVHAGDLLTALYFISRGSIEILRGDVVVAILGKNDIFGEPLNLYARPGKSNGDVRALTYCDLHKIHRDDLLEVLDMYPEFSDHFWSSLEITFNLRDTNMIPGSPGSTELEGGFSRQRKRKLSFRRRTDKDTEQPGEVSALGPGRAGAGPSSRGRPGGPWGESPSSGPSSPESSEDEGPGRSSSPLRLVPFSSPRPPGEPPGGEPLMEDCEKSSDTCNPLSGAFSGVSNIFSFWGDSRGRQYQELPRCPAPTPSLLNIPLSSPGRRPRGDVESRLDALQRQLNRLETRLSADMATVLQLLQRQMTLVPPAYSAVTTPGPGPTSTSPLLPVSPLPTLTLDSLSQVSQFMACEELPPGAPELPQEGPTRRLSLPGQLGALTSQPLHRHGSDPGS

SMILES | hERG current change (%, negative = inhibition) at 1uM [%]
COC(=O)C1=C(c2ccc(S(C)(=O)=O)cc2)C[C@@H]2CC[C@H]1N2C(=O)N1CCOCC1 | 11.6
O=C(CC1C(=O)NCCN1Cc1ccc(-c2ccccc2)cc1)NCCCn1ccnc1 (stereo not drawn) | 8.39
COc1ccc(/C=N/Nc2nc(-c3ccc(Cl)cc3)cc(C(F)(F)F)n2)cc1OC | 12.9
CCCn1c(N)c(C(=O)CSc2nc3ncc(Cl)cc3[nH]2)c(=O)[nH]c1=O | 6.85
Cc1ccc(CONC(=O)c2ccc(Cl)cc2)cc1 | 12.5
CC(OC(=O)c1ccccc1N1C(=O)C2C3CCC(C3)C2C1=O)C(=O)c1ccccc1 (stereo not drawn) | 10.2
CC(C)(C)N1C(=O)[C@H]2[C@@H](c3ccc(Br)cc3)N3C(=O)N(c4cccc(F)c4)C(=O)[C@@]3(C)[C@H]2C1=O | 11.9
COc1ccc(OC)c(/C=N/NC(=O)c2cc[n+](CC(=O)c3ccccc3)cc2)c1.[Br-] | 2.95
C#CCOCCOCCOCCNc1nc(N2CCOCC2)nc(N2CCN(C(=O)[C@H](CCC(=O)O)n3cc(C(N)Cc4ccc(O)cc4)nn3)CC2)n1.Cl (stereo partly drawn) | -11.7
COc1cc(CCC(=O)N2CCN(c3ccccc3)CC2)cc(OC)c1OC | -0.0932
O=C(O)CCCCCNCc1c(Cl)cccc1Cl | 13.4
CCNS(=O)(=O)c1ccc(NC(=O)c2cc(C(F)(F)F)nn2C)cc1 | 0.646
O=C1/C(=C/c2ccc(F)cc2)SC(=S)N1NS(=O)(=O)c1ccccc1 | 13
Cc1cccc(NS(=O)(=O)c2cc(C(=O)N3CCN(C)CC3)ccc2C)c1 | -4.91
O=C(Cn1ncc(N2CCCC2)c(Br)c1=O)c1ccc(Cl)cc1 | -8.73
CCCc1cc(=O)[nH]c(Nc2ccc(O)cc2)n1 | 9.8
O=C(Nn1cnnc1)c1ccc(Cl)c([N+](=O)[O-])c1 | 1.64
CCOC(=O)C1(CC2CCCCO2)CCN(C(=O)Nc2ccccc2)CC1 (stereo not drawn) | 16.9
Cc1ccccc1OC(=O)Cn1c(C(F)(F)F)nc2ccccc21 | 10.3
COC(=O)C1=C(C)N(C)C(=O)NC1c1ccc(O)c(Cl)c1 (stereo not drawn) | -9.59
CCCn1c(SCC(=O)NCCc2ccccc2)nnc1-c1ccccn1 | 1.51
Cc1nn(C(C)C(=O)NCC2CCCO2)c(=O)c2cc3occc3n12 (stereo not drawn) | 9.59

SMILES | hERG current change (%, negative = inhibition) at 1uM [%]
Nc1ncnc(N2CCc3ccccc32)c1[N+](=O)[O-] | 8.56
O=C(Nc1ccc2oc(-c3ccccc3)nc2c1)C1CCCO1 (stereo not drawn) | 11.4
O=C(NCC(=O)N(Cc1ccco1)C(C(=O)NC1CCCC1)c1ccncc1)c1cccs1 (stereo not drawn) | 17.6
COc1ccc(NC(=O)Cc2nnc(N)s2)cc1 | 4.62
CCCCc1ccc(NC(=O)NCc2cccnc2)cc1 | -13.3
CN(CC(=O)O)S(=O)(=O)c1ccc2[nH]c(=O)c(=O)[nH]c2c1 | -4.88
COc1ccc(Cc2noc(COc3ccc(Cl)cc3)n2)cc1 | 9.9
O=[N+]([O-])c1ccc(-c2csc3[n+]2CCS3)cc1.[Br-] | -18.1
N#CCc1ccc(NC(=O)c2ccccc2C(=O)Nc2ccc(CC#N)cc2)cc1 | 11.5
COc1ccc(-c2cc(C(=O)N3CC4(C)CC3CC(C)(C)C4)no2)cc1 (stereo not drawn) | 13
CC(=O)CSc1nc2c(c(=O)[nH]c(=O)n2C)n1Cc1cccc(Br)c1 | 4.17
COC(=O)c1c(C)nc(C)c(C(=O)OC)c1-c1ccsc1 | 10.9
COc1cccc(C(=O)OC(C)C(=O)NCC2CCCCC2)c1 (stereo not drawn) | -1.02
NS(=O)(=O)c1ccc(CCNC(=O)c2cc(-c3ccccn3)nc3ccc(Br)cc23)cc1 | 2.43
Cc1cccc(C)c1NC(=O)CSc1nnc(NC(=O)c2ccccc2C(=O)O)s1 | 11.7
COc1ccc(CNS(=O)(=O)c2ccc3c(c2)NC(=O)C(C)S3)cc1 (stereo not drawn) | 5.45
N/C(=N\OC(=O)c1ccc(F)cc1)c1nonc1N | 6.95
COc1ccc(CNC(=O)/C=C/C(=O)O)cc1 | -2.9
CCCCOC(C)n1cc(F)c(=O)[nH]c1=O (stereo not drawn) | 14.1
C(=N\n1cnnc1)/c1ccc(-c2ccccc2)cc1 | 0.629
O=[N+]([O-])c1cc(CN2CCCC2)c2cccnc2c1O | -0.841
CCCCCn1c(=O)c(C(=O)NCc2ccccn2)c(O)c2ccccc21 | 1.29

SMILES | hERG current change (%, negative = inhibition) at 1uM [%]
Cc1c(Nc2ncnc3c2cnn3-c2ccccc2)c(=O)n(-c2ccccc2)n1C | 10.6
CC(C)Oc1cc(-n2c(=S)[nH]c3ccccc3c2=O)c(Cl)cc1Cl | 13.8
O=C1c2ccccc2C(=O)N1CCCc1c[nH]c2ccc(Cl)cc12 | -8.51
Cc1cccc(N2CCN(C(=O)CC(NC(=O)c3ccccc3)c3ccccc3)CC2C)c1 (stereo not drawn) | -4.83
Cc1ccccc1C(=O)NNC(=O)c1cccc([N+](=O)[O-])c1 | 13.8
COc1cc(/C=N/NC(=O)Cc2cccs2)c([N+](=O)[O-])cc1OC | 2.12
Cc1nn(S(=O)(=O)N(C)C)c(C)c1CN1C(=O)c2ccccc2C1=O | 4.75
COc1cccc(NC(=O)CNC(=O)c2cccs2)c1 | 5.16
Clc1ccc(-c2noc(/C=C/c3ccccc3)n2)cc1 | 19
CC(/C=C/c1ccccc1)=N\NC(=O)CCc1ccccc1 | 10.7
CC(C)=CCCC(C)CN(C)CCc1ccccn1 (stereo not drawn) | -10.9
COc1ccc(OCCCC(=O)OC(C)C(=O)Nc2ccc(C)cc2)cc1 (stereo not drawn) | -1.32
Cc1[nH]c2ccccc2c1C(=O)C(=O)NC1CC1 | 17.6
Cc1ccc(C2=NS(=O)(=O)N(C)C(C(=O)Nc3ccc4c(c3)OCO4)=C2)cc1 | 7.49
CCOC(=O)C1CCCN(S(=O)(=O)c2cc(OCC(=O)NC3CCCCC3)c(C)cc2Cl)C1 (stereo not drawn) | -4.51
Cc1cccc(CC2S/C(=N/c3cccc(C)n3)NC2=O)c1 (stereo not drawn) | 7.59
N#Cc1cnc(SCC(=O)NNC(=O)COc2cccc3ccccc23)nc1N | 2.06
Cc1ccc(-n2c(C)nc3oc4ccccc4c(=O)c3c2=O)cc1 | 10.5
COc1cccc(N2C(=O)/C(=C\c3cccs3)NC2=S)c1 | 16.8
COc1ccccc1NCC(O)Cn1c2ccccc2c2ccccc21 (stereo not drawn) | -0.495
CCCCN(C(=O)C1=COCCO1)c1c(N)n(CCCC)c(=O)[nH]c1=O | 3.66
CC(C)C(C)NC(=O)CN1C(=O)NC(C)(c2ccc3ccccc3c2)C1=O (stereo not drawn) | 15.3

SMILES | hERG current change (%, negative = inhibition) at 1uM [%]
COc1ccc(OC)c(-c2csc(NC(=O)C3=COCCO3)n2)c1 | 12.1
Cc1cccc(N(CC(=O)NC(C)(C)C)C(=O)CNC(=O)c2cccs2)c1 | 13.5
Cc1ccc(C)c2[nH]c(=O)c(CN(Cc3cccnc3)C(=S)NCc3ccco3)cc12 | -3.08
COc1ccc(C2C(C#N)=C(N)N(c3sc4c(c3C#N)CCCC4)C3=C2C(=O)CC(C)(C)C3)cc1 (stereo not drawn) | 5.64
COc1nc2c(c(-c3cc(Br)cs3)c1C#N)Cc1ccccc1-2 | 14.4
CCCC1=Nc2cc(C(=O)N3CCC(C(N)=O)CC3)ccc2Sc2ccccc21 | 15.9
CCCCCSc1nnc(N)s1 | 7.57
COc1ccc(/C=C/C(=O)N/C(=C\c2ccco2)C(=O)NCCc2nc3ccccc3[nH]2)cc1 | -18.2
CN(Cc1c(F)cccc1Cl)C(=O)CNC(=O)c1sc2ccccc2c1Cl | 8.4
O=C(COC(=O)C1CC(O)CN1S(=O)(=O)c1ccc(Cl)cc1)c1cccc(Cl)c1 (stereo not drawn) | 34.1
COc1ccccc1C(=O)Nc1ccc(S(=O)(=O)Nc2cc(C)on2)cc1 | 9.63
C/C(CC(=O)Nc1cc(Cl)ccc1C)=N\NC(=O)C(=O)N1CCCC1 | 14.7
Cc1cc2c(cc1S(=O)(=O)CCC(=O)N1CC(C)CC(C)C1)OCC(=O)N2 (stereo not drawn) | -13.6
O=C(CNS(=O)(=O)c1ccccc1)OCC(=O)c1c[nH]c2ccccc12 | 7.69
CSCc1cccc(C(=O)OC(C)C(=O)Nc2c(C)n(C)n(-c3ccccc3)c2=O)c1 (stereo not drawn) | 8.97
CCOC(=O)c1cccc(NC(=O)CCCn2c(=O)c3cccn3c3cccnc32)c1 | 4.97
Nc1cc(-c2nc3ncccc3o2)ccc1Cl | 3.93
CCN1CCN(CC#CCOc2ccccc2OC)CC1.O=C(O)C(=O)O | 3.3
COCC(=O)Nc1nnc(-c2cccs2)s1 | 11.5
COc1ccc(-c2cc3ccc(O)cc3oc2=O)cc1OC | 15.5
COc1cccc(OCC(O)CNC(C)c2ccccc2)c1.Cl (stereo not drawn) | 7.69
